Here are results for 60 molecules from PubChem BioAssay AID1508624 (National Center for Advancing Translational Sciences (NCATS), 2021).

Among all 48,000 compounds or so, about 120 (0.25%) were called active. Roughly 4% stayed inconclusive and do not appear here. The call rests on the fitted dose curve; in most records, active means well fitted activation curve with a large enough effect; inconclusive means small, poorly fitted or top-dose-only effect, or another doubt; inactive means no such curve, though single readings can be large or run the other way. Some of the results follow.

This assay in a line: Primary qHTS for Identification of Small Molecule Activators of Huntingtin-Antisense Promoter Activity. Further: nearly all actives have a fitted effect of over 55% in size. The conditions noted are these: HEK293 HTT-AS promoter firefly luciferase reporter, 24 h; series mostly up to 57.5 µM; activity change, positive = activation: at the top concentration. The procedure, abridged: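 HEK293 Fluc reporter, 2,500 cells/well, 24 h pre-culture; cpds up to 57.5 uM final, 24 h 37 degrees C; Dual-Glo, 10 min RT; normalized vehicle = 0%, zero RLU = -100%.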
(qHTS replaces the single test concentration by a dilution series.)
Take `CCOc1ccc(NC(=O)Cn2cc(C(=O)c3ccc(C)c(C)c3)c(=O)c3cc(F)ccc32)cc1`: the “activity change, positive = activation” value is inactive: -7.95%.
Regarding `Cc1ccc(Cl)cc1NC(=O)Cn1c(=O)n(CCC(=O)N2CCc3ccccc3C2)c(=O)c2ccccc21`, the “activity change, positive = activation” value is inactive: -8.62%.
Take `CN(C[C@@H]1COCCO1)S(=O)(=O)Nc1ccc2ccc3ncc(-c4cnn(C)c4)cc3c(=O)c2c1`: the “activity change, positive = activation” value is inactive: -1%.
On to `COc1cc(NC(=O)CSc2nc3nc(C)c(Cc4ccccc4)c(C)n3n2)cc(OC)c1`, for which the “activity change, positive = activation” value was inactive: -0.667%.
In the case of `CCOc1ccc2nc(N3CCCC(C(=O)NCCc4ccc(SC)cc4)C3)sc2c1` (stereo not given), the “activity change, positive = activation” value is inactive: 26.5%.
As for `CCN(c1ccc(C)cc1C)S(=O)(=O)c1nnc(NC(=O)CC(C)C)s1`, the “activity change, positive = activation” value is inactive: -8.56%.
To `CCOC(=O)c1cc2c(=O)n3ccccc3nc2n(Cc2ccco2)c1=NC(=O)c1ccccc1OC` belongs inactive: -6.78%; to `Cc1ccc(NC(=O)C2CCCN(c3nnc(C)c4c(C)n(-c5ccccc5)nc34)C2)cc1Cl` (stereo not given), inactive: -20%; to `Cc1c2cnn(CC(=O)Nc3ccc(F)cc3F)c(=O)c2c(C)n1Cc1cccc(Cl)c1`, inactive: -12.9%.
For `Cc1cc(C)cc(OCC(=O)Nc2cccc(-c3nc4ccccc4[nH]3)c2)c1`, the “activity change, positive = activation” value was inactive: -6.05%.
For the molecule `O=C(Cn1c(=O)n(-c2ccc(F)cc2)c(=O)c2sccc21)Nc1cccc(C(F)(F)F)c1`, the “activity change, positive = activation” value was inactive: -20.4%.
Then `COc1ccc(-n2nc3c(c2NC(=O)C(=O)N2CCN(C)CC2)CSC3)cc1`, with inactive: -7.81%; and `Cc1ccc(-n2nc3c(=O)n(C(C)C(=O)O)nc(C)c3c2C)cc1` (stereo not given), with inactive: -5.54%; and `COc1ccc(Cn2c(C(=O)O)c(CNCCc3ccccc3Cl)c3ccc(C)cc32)cc1`, with inactive: -68.7%.
For the molecule `CCC(=O)N1CCc2cc(S(=O)(=O)CCC(=O)NCc3ccc(F)cc3)ccc21`, the “activity change, positive = activation” value was inactive: -27.6%.
To `CC(C)NC(=O)c1cc2c(Cl)nc3ccccc3c2s1` belongs inactive: -1.76%.
With `Cc1ccc(N2C(=O)CS(=O)(=O)C23C(=O)N(Cc2ccccc2F)c2ccccc23)cc1Cl` (stereo not given), the “activity change, positive = activation” value was inactive: -30.8%.
Then `O=C(COc1ccccc1Cl)Nc1ccccc1OCc1cc(=O)n2ccccc2n1`, with inactive: -3.6%; and `O=C(CN1C(=O)C2CCCCN2c2ccc(C(=O)N3CCCC3)cc21)NCc1ccccc1F` (stereo not given), with inactive: -8.16%; and `CN(c1ccccc1)C(CNS(=O)(=O)c1ccccc1)c1ccccc1` (stereo not given), with inactive: -20.8%.
Turning to `CCCCN(CC)CCNc1ncnc2onc(-c3ccc(Cl)cc3)c12`, the “activity change, positive = activation” value is inactive: -3.8%.
As for `COc1ccc(Cc2nnc(C(=O)NCCCN3CCN(c4ccccc4F)CC3)o2)cc1OC`, the “activity change, positive = activation” value was inactive: -30.8%.
For the molecule `CC(C)COc1ccc(Nc2ncnc3ccc(Br)cc23)cc1`, the “activity change, positive = activation” value was inactive: -19.5%.
Regarding `COC(=O)c1sccc1S(=O)(=O)N(CC(=O)NCc1ccc(F)cc1)c1ccc(C)c(C)c1`, the “activity change, positive = activation” value was inactive: -18.6%.
Turning to `Cc1ccc(CN(Cc2ccco2)C(=O)c2cccc(C)c2)cc1`, the “activity change, positive = activation” value is inactive: -27.7%.
Then `CNS(=O)(=O)c1cn(CC(=O)Nc2cccc(C(F)(F)F)c2)cc1S(=O)(=O)NC`, with inactive: -11.4%; and `Cc1cccc(NC(=O)NC2COc3ccccc3C2)c1C` (stereo not given), with inactive: -11%; and `CNS(=O)(=O)c1cn(CC(=O)N2CCN(c3ccc(C)cc3C)CC2)cc1S(=O)(=O)NC`, with inactive: -9.58%.
`CCCCS(=N)(=O)CCC(N)C(=O)O` (stereo not given): the “activity change, positive = activation” value is inactive: 5.91%.
Consider `Cc1cc(C)cc(NC(=O)C(=O)NCC(c2cccnc2)N2CCc3ccccc32)c1` (stereo not given), for which the “activity change, positive = activation” value was inactive: -22.4%.
Then `COc1cccc(C(=O)c2sc(Nc3ccc(F)c(Cl)c3)nc2N)c1`, with inactive: -9.97%.
For the molecule `Cn1c(=O)c2sccc2n2c(CCC(=O)Nc3ccc(F)cc3)nnc12`, the “activity change, positive = activation” value is inactive: -10.7%.
`C[C@@H]1CN(c2c(F)c(F)c3c(=O)c(C(=O)O)cn(C4CC4)c3c2F)C[C@H](C)N1`: the “activity change, positive = activation” value is inactive: 0.199% [at 25.1 µM, percent change from vehicle, -100% = no light].
With `COc1ccc(OC)c(-c2noc(N3CCN(c4cc(Cl)ccc4C)CC3)n2)c1`, the “activity change, positive = activation” value was inactive: -30%.
On to `Cc1ccc(C)c(NC(=O)CSc2nnc(C)n3c2cc2occc23)c1`, for which the “activity change, positive = activation” value is inactive: -7.48%.
Regarding `CCC1CCCCN1CCCNC(=O)c1ccc2c(c1)sc1nc(-c3ccc(F)cc3)cn12` (stereo not given), the “activity change, positive = activation” value was inactive: 12.6%.
Then `COc1ccccc1NC(=O)CN1CCN(CC(=O)Nc2ccc(F)c(F)c2)CC1`, with inactive: -31.6%; and `O=S(=O)(Nc1cccc(-c2ccc(N3CCOCC3)nn2)c1)c1cc(C(F)(F)F)ccc1Cl`, with inactive: 11.5%.
Turning to `COc1ccc(C2c3c(-c4ccccc4O)n[nH]c3C(=O)N2CCc2ccccc2)cc1` (stereo not given), the “activity change, positive = activation” value was inactive: -40.1%.
To `COC(=O)c1ccc(Cl)cc1NC(=O)Nc1nnc(N(C)Cc2ccccc2)s1` belongs inactive: -20.8%; to `CCOC(=O)c1ccc(CN(Cc2ccc(Br)cc2)S(=O)(=O)c2cccc(C(F)(F)F)c2)cc1`, inactive: -23.7%; to `COc1ccc2c(c1)c(=O)c(C(=O)c1ccc(C)cc1)cn2Cc1ccccc1F`, inactive: -24.5%.
As for `CCC(C)(C)C(=O)O[C@H]1C[C@@H](C)C=C2C=C[C@H](C)[C@H](CC[C@@H]3C[C@@H](O)CC(=O)O3)[C@H]21`, the activity change, positive = activation entry is “inactive”.
Turning to `Cc1cc(C)c(Cn2c(=O)n(-c3ccccc3Cl)c(=O)c3c(C)c(C(=O)N(C)C)sc32)c(C)c1`, the “activity change, positive = activation” value is inactive: -15.2%.
Turning to `COc1ccc(N2CCN(C(=O)c3ccc4c(c3)N(Cc3cc(C)ccc3C)C(=O)c3ccccc3S4=O)CC2)cc1` (stereo not given), the “activity change, positive = activation” value is inactive: -28.4%.
For `Cc1cn2c(=O)cc(COc3cccc(NC(=O)c4ccccc4Cl)c3)nc2s1`, the “activity change, positive = activation” value was inactive: 0.0601%.
To `COc1cccc(N2CC(NC(=O)C3CCCCC3)CC2=O)c1` (stereo not given) belongs inactive: -5.49%.
On to `COc1ccc(C(=O)Nc2nnc(S(=O)(=O)N3CCN(c4ccc(C)cc4)CC3)s2)cc1`, for which the “activity change, positive = activation” value is inactive: 0.899%.
For `CC(Oc1ccccc1)C(=O)Nc1nnc(S(=O)(=O)N2CCCCCC2)s1` (stereo not given), the “activity change, positive = activation” value was inactive: -18.6%.
Regarding `Cc1ccccc1C(=O)Nc1cccc(-c2cn3cccnc3n2)c1`, the “activity change, positive = activation” value is inactive: -19.2%.
Regarding `Cc1ccc(Oc2nc3c(c(=O)n(Cc4ccccc4Cl)c(=O)n3C)n2C)cc1C`, the “activity change, positive = activation” value is inactive: -0.702%.
On to `COc1ccc(-c2cc3nc(C)c(CCC(=O)Nc4ccc(F)cc4F)c(C)n3n2)c(OC)c1`, for which the “activity change, positive = activation” value is inactive: -20.6%.
Then `CCc1ccc(CNC(=O)C(CC)n2nc(C)c3c(C)n(-c4ccccc4)nc3c2=O)cc1` (stereo not given), with inactive: -45%.
As for `Cc1cc(S(=O)(=O)n2ccnc2C(C)C)cc([N+](=O)[O-])c1C`, the “activity change, positive = activation” value is inactive: -11.9%.
As for `COc1ccc(C2Sc3ccccc3N(CCN(C)C)C(=O)C2OC(C)=O)cc1` (stereo not given), the “activity change, positive = activation” value was inactive: -8.44%.
To `CCOC(=O)c1[nH]c2ccccc2c1NC(=O)c1ccccc1OC` belongs inactive: -27.1%; to `Cc1ccc(CCNC(=O)c2ccc(CNS(=O)(=O)c3ccc(C)cc3)cc2)cc1`, inactive: -12.4%.
For `Cc1ccc(Cl)cc1N1CCN(C(=O)c2cn(CC(C)C)c(=O)c3c2c2ccccc2n3C)CC1`, the “activity change, positive = activation” value was inactive: -30.9%.
Then `CCOC(=O)c1nc(Nc2ccc(Cl)cc2)c2c(C)noc2n1`, with inactive: -13.8%; and `O=C(Nc1cc(C(F)(F)F)ccc1Cl)c1ccc2c(c1)CCN2S(=O)(=O)c1ccccc1`, with inactive: -0.347%.
